Measurements: article doi:10.1101/308676, “MLL1 minimal catalytic complex is a dynamic conformational ensemble susceptible to pharmacological allosteric disruption” (bioRxiv, 2018)

Legend:
[1] = target: RbBP5 full-length (aa 1-538), from E. coli (UniProt Q15291); assay: pull-down; GST-MLL1 proteins with RbBP5 constructs at 1:2 molar ratio, 4 °C 1 h, then glutathione-Sepharose 1 h; 20 mM Tris pH 7.7, 150 mM NaCl, 10 μM ZnCl2, 5 mM β-mercaptoethanol, 5 mM DTT, 1 mM PMSF; eluted with 30 mM reduced glutathione, SDS-PAGE and Coomassie; settings: both partners purified
[2] = target: RbBP5-NTD (aa 10-340) (UniProt Q15291 10-340); assay: as above; settings: both partners purified

B1: GST-MLL1-SET (human MLL1 […]) (domain or fragment)
chain: not shown
notes: MLL1 (mixed lineage leukemia protein 1), human, […]: RBS segment and SET domain; In the pull-down the GST tag is kept (bait on glutathione-Sepharose); also called MLL1-SET-GST; source: E. coli BL21(DE3) codon plus RIL, purified (GST fusion); not shown: GST, N-terminal, kept
[1]
  binding result: binds
[2]
  binding result: binds
